Over roughly 33,000 sequences, “E-score (-0.5 to 0.5)” has its median near -0.021; the highest 2% begin near 0.32. This is one part of the list.
Biological target: T1, Zap1 (UniProt P47043)
T1 sequence: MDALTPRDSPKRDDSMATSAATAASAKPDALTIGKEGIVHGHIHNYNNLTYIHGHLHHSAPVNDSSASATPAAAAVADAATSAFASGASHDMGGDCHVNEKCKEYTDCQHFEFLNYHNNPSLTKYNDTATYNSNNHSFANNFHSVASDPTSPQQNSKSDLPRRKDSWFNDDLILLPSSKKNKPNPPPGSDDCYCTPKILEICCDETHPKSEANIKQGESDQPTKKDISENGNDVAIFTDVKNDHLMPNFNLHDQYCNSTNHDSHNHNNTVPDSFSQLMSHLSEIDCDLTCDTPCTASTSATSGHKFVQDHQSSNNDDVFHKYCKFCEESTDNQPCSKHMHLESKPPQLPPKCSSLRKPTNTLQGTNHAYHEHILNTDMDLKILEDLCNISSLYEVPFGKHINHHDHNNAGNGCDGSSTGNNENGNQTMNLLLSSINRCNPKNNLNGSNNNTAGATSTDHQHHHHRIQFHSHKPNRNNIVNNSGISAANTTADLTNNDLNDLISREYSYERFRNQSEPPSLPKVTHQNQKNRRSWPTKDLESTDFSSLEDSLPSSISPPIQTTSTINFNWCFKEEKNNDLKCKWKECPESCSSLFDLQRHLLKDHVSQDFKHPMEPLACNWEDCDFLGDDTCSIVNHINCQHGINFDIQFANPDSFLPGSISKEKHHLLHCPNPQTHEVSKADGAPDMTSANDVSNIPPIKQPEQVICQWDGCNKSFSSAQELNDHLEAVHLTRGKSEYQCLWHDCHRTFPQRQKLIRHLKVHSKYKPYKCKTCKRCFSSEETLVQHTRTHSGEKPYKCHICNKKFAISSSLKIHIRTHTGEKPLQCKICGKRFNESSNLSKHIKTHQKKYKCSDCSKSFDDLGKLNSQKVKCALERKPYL
Assay: PBM E-score (8-mer binding enrichment) (E-score (-0.5 to 0.5)); higher = stronger / more preferred TF binding; most listed sequences are background and not binding sites
Conditions: protein concentration: 200 nM; construct: GST-full length
Experimental: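 Universal 'all 10-mer' protein binding microarrays (Agilent AMADID 015681) probed with GST-tagged S. cerevisiae TFs (full-length or DBD) made by in vitro transcription/translation (PURExpress), about 100-200 nM. Bound TF was detected with fluorescent anti-GST. Each ungapped 8-mer (which stands for itself and its reverse complement) is scored by the PBM enrichment score (E-score), a modified Wilcoxon-Mann-Whitney statistic from -0.5 to +0.5, computed with the Universal PBM Analysis Suite. Scale: above 0.35 generally sequence-specific binding.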

Row | Sequence | PBM E-score
1 | AGATGGAT | -0.254
2 | AGTCGTTC | -0.148
3 | CACCTCGA | 0.215
4 | ACTCAAAA | 0.0364
5 | CCTGCGCC | -0.187
6 | CCCAGGTC | -0.13
7 | ATTCTTAC | 0.137
8 | ATTAGAGG | 0.0254
9 | AAAACTCG | 0.129
10 | TCACTGAA | 0.073
11 | CATCTCTC | -0.0882
12 | CGGGTCTA | 0.0775
13 | AGTAGTGG | 0.142
14 | ACTGACCC | 0.109
15 | AGGCGGGC | -0.347
16 | ACATGTCA | -0.0569
17 | AATTAGAA | 0.0569
18 | ATAAAGGC | -0.00446
19 | ACCCGTAC | 0.0183
20 | AGAACTCA | 0.0932
21 | CCAAACCA | 0.0629
22 | GGCGCACC | -0.0307
23 | AGACGTAT | -0.164
24 | AGTGATCA | -0.0123
25 | GTTATTAA | 0.305

Row | Sequence | PBM E-score
26 | AACTGCAG | -0.0265
27 | TAGGATCA | 0.0416
28 | AACGCGAG | -0.0126
29 | AAACACTT | -0.0762
30 | ATGTCAAA | -0.0366
31 | GCTGCAGA | -0.163
32 | GACACTTA | -0.177
33 | GCCCCGGA | -0.0209
34 | GCAACCCA | 0.294
35 | ACACGCAA | 0.0714
36 | AGTTTGAT | -0.0115
37 | CAACCCCA | 0.42
38 | CAAAGTGA | 0.0371
39 | CAGACACC | -0.0467
40 | GGCAACGA | -0.0667
41 | CGAAGGGA | 0.0197
42 | ACGATACG | -0.0335
43 | CGGTCTCC | -0.217
44 | CCCGACCG | 0.0188
45 | CTAGTCCA | -0.0875
46 | GAATCGGA | -0.0718
47 | CACCGTGC | 0.0803
48 | CCGCGGAA | 0.127
49 | CCCGGACC | 0.0712
50 | AGCACCAC | -0.116

Row | Sequence | PBM E-score
51 | CTACGAAA | -0.1
52 | CATAAAGA | 0.116
53 | TCAGTACA | 0.141
54 | GCCGTGCC | -0.168
55 | CTCTGACA | 0.0983
56 | AATACCGT | 0.0758
57 | AACTGCAA | 0.0405
58 | ATGTTCCC | -0.156
59 | ACCCCTAG | 0.341
60 | ACGTATAA | -0.0471
61 | ATTCCAGC | -0.183
62 | CCCCGTCA | -0.0604
63 | AGTCTTCC | -0.161
64 | GGTGAGAC | -0.0582
65 | GAATTTGC | -0.183
66 | CGGATGCA | -0.0921
67 | ACTAAAGT | -0.0221
68 | AGGAAAGC | -0.223
69 | CGACAATC | -0.189
70 | GAACTCAC | 0.013
71 | CTTGAAGC | 0.00891
72 | ATAGGCGC | -0.134
73 | GCCCTGGA | -0.181
74 | CCCGATGC | -0.215
75 | ACACAAAC | 0.166

Row | Sequence | PBM E-score
76 | ACACCAGT | -0.0248
77 | AGAACCCA | 0.19
78 | GAGGACCA | -0.0833
79 | TATTTGGA | -0.152
80 | GGCTATGA | -0.172
81 | CATAGGAA | -0.142
82 | CCCAGACA | -0.00707
83 | AGTCCTCC | -0.144
84 | CCACGAGA | -0.0813
85 | GCACTGAC | -0.156
86 | CGCGCAAC | 0.0629
87 | ATGGACCA | 0.119
88 | CGGCGGAA | -0.0432
89 | AATCTAAT | -0.0502
90 | ATCCGTGC | 0.0137
91 | GTGTGTTA | 0.144
92 | CTAGAGTA | -0.0442
93 | AACCCTTC | 0.424
94 | CTCCCTCA | -0.188
95 | ATCAATAG | 0.0709
96 | AATTCGTC | -0.0404
97 | AAATGGGG | -0.0511
98 | CCACGTTA | 0.152
99 | ATAGGACA | -0.15
100 | ACTATCCA | -0.0951

Row | Sequence | PBM E-score
101 | CCGCAGCA | -0.0602
102 | ATTACCTG | 0.149
103 | CTTTTAAA | 0.117
104 | AAGGCCGT | 0.0959
105 | AGTGTTAC | 0.0824
106 | AGGCGCCG | -0.0446
107 | ACCGCATG | 0.146
108 | ACGCTTGA | 0.0154
109 | GTAGTATA | 0.165
110 | AAATGGCA | -0.0227
111 | AAGGCTTA | -0.295
112 | CATGCTCG | -0.241
113 | CAAAGGGC | 0.0554
114 | ATGGGACG | 0.0501
115 | ATGTTAAT | 0.082
116 | GAGGGACA | -0.116
117 | ATTCTAAA | 0.0868
118 | CCATTGAC | -0.0454
119 | AGATTAAA | 0.2
120 | CCAGCCGC | -0.287
121 | AGAGTACG | -0.00063
122 | TCCGTTCA | -0.31
123 | AGGCTCGC | -0.122
124 | AACGTAAT | 0.0746
125 | CGAAGGAA | 0.0492

Row | Sequence | PBM E-score
126 | ATCGGAGC | -0.137
127 | ATAAGGGA | -0.0487
128 | TCACGTAA | 0.0653
129 | GTCGATTA | 0.105
130 | CGGCCAAA | 0.0749
131 | ATTGTTAA | 0.00657
132 | CACCGCTA | 0.0167
133 | CTGTTAAG | 0.0289
134 | AACTGTGT | -0.0115
135 | GCTTGACA | -0.141
136 | AGCAAGCA | -0.167
137 | GGTTACCA | 0.468
138 | TCCATGAA | -0.0151
139 | CGAGCAAC | -0.072
140 | ACGGCCAT | 0.218
141 | GCCCCCGC | -0.322
142 | GACGCTGA | -0.0841
143 | GTAGCGGA | -0.0235
144 | CTGGTCGC | 0.0992
145 | CGTCGGGA | -0.0974
146 | ATTGGCAA | 0.134
147 | ACGCGGAT | 0.0234
148 | ATTTCCCG | 0.104
149 | TAGAGGAA | -0.0988
150 | AAAGCGCT | 0.0136

Row | Sequence | PBM E-score
151 | ATCACGCA | -0.0391
152 | CCTGTTAA | 0.118
153 | ATAGAACA | 0.147
154 | AGAGTGTA | -0.0824
155 | AAAGGTCT | 0.238
156 | CCAATCAG | -0.187
157 | AGCGGCAG | -0.229
158 | CGTCACTA | -0.0123
159 | ACTAAGGC | -0.123
160 | CCGTGTTA | 0.034
161 | ACCTTTAG | 0.348
162 | ATGTACTA | 0.139
163 | TAGCGCCA | -0.0799
164 | ACTTCAGA | -0.0218
165 | GACAACCA | 0.252
166 | CGGTCAAC | 0.0787
167 | CAACTGAG | -0.0811
168 | GAAGCCGA | -0.146
169 | TAGGGATA | 0.138
170 | AGACGCCG | 0.0452
171 | CGGCCCAC | -0.0285
172 | GGCATCGA | -0.21

Source: the supplement of paper PMC3334620
